By IC50 is meant the dose at which the fit gives 50% viability; fits outside the tested doses are given as limits. AUC sums up the same curve from the lowest dose to the 256-fold higher top dose; the more sensitive the line, the further below 1. For some of these results: Where the top dose is marked as inferred, it comes from the curve model; the source does not state it. For some of these results: An entry number marks a drug with two screens in the source, which often give different values.
Legend:
Experiment in all cases: Viability of human cancer cell lines after 72 h of drug (GDSC screen)
Masitinib = compound: Cc1ccc(NC(=O)c2ccc(CN3CCN(C)CC3)cc2)cc1Nc1nc(-c2cccnc2)cs1 [Masitinib]; conditions: top dose 20 µM
Protocol: (§1)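 Human cancer cell lines in 384-well plates, medium with 10% serum, drug for 72 h over a 256-fold dose range (nine 2-fold or five 4-fold steps up to the top dose). Adherent lines were fixed and stained with the nucleic acid dye Syto60, suspension lines read with resazurin; signal relative to control wells, capped at 0 and 100%. One two-parameter sigmoid per drug and line, fitted in a mixed model over all curves with the slope shared within a line.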

LAQ824 = compound: O=C(/C=C/c1ccc(CN(CCO)CCc2c[nH]c3ccccc23)cc1)NO [LAQ824]; conditions: top dose 1.024 µM; top dose inferred
Protocol: as §1

Elesclomol = compound: CN(NC(=O)CC(=O)NN(C)C(=S)c1ccccc1)C(=S)c1ccccc1 [Elesclomol]; conditions: top dose 0.2 µM; top dose inferred
Protocol: as §1

Bleomycin = compound: Cc1c(N)nc([C@H](CC(N)=O)NC[C@H](N)C(N)=O)nc1C(=O)N[C@H](C(=O)N[C@H](C)[C@@H](O)[C@H](C)C(=O)N[C@H](C(=O)NCCc1nc(-c2nc(C(=O)NCCC[S+](C)C)cs2)cs1)[C@@H](C)O)[C@@H](OC1OC(CO)C(O)C(O)C1OC1OC(CO)C(O)C(OC(N)=O)C1O)c1cnc[nH]1 [Bleomycin]
Protocol: as §1

OSI-930 = compound: O=C(Nc1ccc(OC(F)(F)F)cc1)c1sccc1NCc1ccnc2ccccc12 [OSI-930]; conditions: top dose 10.24 µM
Protocol: as §1

NSC-87877 = compound: O=S(=O)(O)c1ccc2cc(N=Nc3cc(S(=O)(=O)O)c4cccnc4c3O)ccc2c1 [NSC-87877]; conditions: top dose 16 µM; top dose inferred
Protocol: as §1

Tamoxifen = compound: CC/C(=C(\c1ccccc1)c1ccc(OCCN(C)C)cc1)c1ccccc1 [Tamoxifen]; conditions: top dose 5 µM
Protocol: as §1

VNLG/124 = compound: CCCC(=O)OCc1ccc(OC(=O)/C=C(C)/C=C/C=C(C)/C=C/C2=C(C)CCCC2(C)C)cc1 [VNLG/124]; conditions: top dose 5.12 µM; top dose inferred
Protocol: as §1

BX-912 = compound: O=C(Nc1cccc(Nc2ncc(Br)c(NCCc3cnc[nH]3)n2)c1)N1CCCC1 [BX-912]; conditions: top dose 10.24 µM; top dose inferred
Protocol: as §1

[1] = top dose 50 µM, screen: GDSC drug entry 1378, top dose inferred
[2] = top dose 64 µM, screen: GDSC drug entry 190

Row | Cell Line | AUC (Masitinib) | IC50 (Masitinib) [µM] | AUC (LAQ824) | IC50 (LAQ824) [µM] | AUC (Elesclomol) | IC50 (Elesclomol) [µM] | AUC (Bleomycin; [1]) | IC50 (Bleomycin; [1]) [µM] | AUC (Bleomycin; [2]) | IC50 (Bleomycin; [2]) [µM] | AUC (OSI-930) | IC50 (OSI-930) [µM] | AUC (NSC-87877) | IC50 (NSC-87877) [µM] | AUC (Tamoxifen) | IC50 (Tamoxifen) [µM] | AUC (VNLG/124) | IC50 (VNLG/124) [µM] | AUC (BX-912) | IC50 (BX-912) [µM]
1 | REH (B-cell leukaemia, suspension) | 0.848 | 13.9 | 0.322 | 0.0209 | 0.59 | 0.0218 | 0.376 | 1.44 | 0.06 | < 0.25 | 0.93 | > 10.2 | 0.983 | > 16 | 0.961 | > 5 | 0.97 | > 5.12 | 0.44 | 0.443
2 | KS-1 (glioma, adherent) | 0.864 | > 20 | 0.425 | 0.0379 | 0.533 | 0.0157 | 0.454 | 2.26 | 0.105 | < 0.25 | 0.975 | > 10.2 | 0.976 | > 16 | 0.941 | > 5 | 0.918 | > 5.12 | 0.79 | 5.83
3 | JM1 (B-cell lymphoma, suspension) | 0.908 | > 20 | 0.286 | 0.0176 | 0.444 | 0.00898 | 0.625 | 6.53 | 0.518 | 4.44 | 0.951 | > 10.2 | 0.964 | > 16 | 0.988 | > 5 | 0.991 | > 5.12 | 0.599 | 1.15
4 | L-1236 (Hodgkin lymphoma, suspension) | 0.957 | > 20 | 0.387 | 0.033 | 0.983 | > 0.2 | 0.753 | 14.4 | 0.454 | 3.05 | 0.989 | > 10.2 | 0.985 | > 16 | 0.979 | > 5 | 0.982 | > 5.12 | 0.964 | > 10.2
5 | DB (B-cell lymphoma, suspension) | 0.824 | 13.9 | 0.331 | 0.0203 | 0.882 | > 0.2 | 0.876 | > 50 | 0.562 | 6.05 | 0.953 | > 10.2 | 0.976 | > 16 | 0.965 | > 5 | 0.973 | > 5.12 | 0.873 | > 10.2
6 | PANC-04-03 (pancreas, adherent) | 0.978 | > 20 | 0.608 | 0.152 | 0.837 | > 0.2 | 0.858 | > 50 | 0.466 | 3.05 | 0.978 | > 10.2 | 0.912 | > 16 | 0.974 | > 5 | 0.976 | > 5.12 | 0.978 | > 10.2
7 | BICR22 (head and neck, adherent) | 0.983 | > 20 | 0.728 | 0.318 | 0.42 | 0.00729 | 0.128 | < 0.195 | 0.233 | 0.584 | 0.983 | > 10.2 | 0.983 | > 16 | 0.952 | > 5 | 0.977 | > 5.12 | 0.964 | > 10.2
8 | KY821 (leukaemia, suspension) | 0.904 | > 20 | 0.585 | 0.106 | 0.991 | > 0.2 | 0.986 | > 50 | 0.934 | > 64 | 0.962 | > 10.2 | 0.986 | > 16 | 0.988 | > 5 | 0.988 | > 5.12 | 0.949 | > 10.2
9 | SK-MEL-24 (melanoma, adherent) | 0.982 | > 20 | 0.667 | 0.207 | 0.546 | 0.0172 | 0.221 | 0.391 | 0.715 | 18.7 | 0.979 | > 10.2 | 0.802 | 9.9 | 0.972 | > 5 | 0.982 | > 5.12 | 0.85 | > 10.2
10 | SBC-5 (small cell lung carcinoma, adherent) | 0.986 | > 20 | 0.377 | 0.0315 | 0.586 | 0.0205 | 0.701 | 10.1 | 0.319 | 1.4 | 0.988 | > 10.2 | 0.99 | > 16 | 0.993 | > 5 | 0.992 | > 5.12 | 0.989 | > 10.2
11 | EW-3 (Ewing sarcoma, adherent) | 0.902 | > 20 | 0.669 | 0.203 | 0.727 | 0.0613 | 0.522 | 3.62 | 0.724 | 19.2 | 0.984 | > 10.2 | 0.98 | > 16 | 0.966 | > 5 | 0.95 | > 5.12 | 0.865 | > 10.2
12 | NCI-H2342 (lung adenocarcinoma, adherent) | 0.974 | > 20 | 0.453 | 0.0471 | 0.703 | 0.0499 | 0.77 | 20.9 | 0.069 | < 0.25 | 0.975 | > 10.2 | 0.979 | > 16 | 0.965 | > 5 | 0.984 | > 5.12 | 0.972 | > 10.2
13 | KMOE-2 (acute myeloid leukaemia, suspension) | 0.871 | 15.5 | 0.435 | 0.0434 | 0.686 | 0.0388 | 0.936 | > 50 | 0.872 | 49.8 | 0.93 | > 10.2 | 0.984 | > 16 | 0.98 | > 5 | 0.99 | > 5.12 | 0.828 | 5.43
14 | L-363 (myeloma, suspension) | 0.817 | 9.29 | 0.3 | 0.0192 | 0.445 | 0.00906 | 0.963 | > 50 | 0.903 | > 64 | 0.867 | 7.25 | 0.989 | > 16 | 0.976 | > 5 | 0.984 | > 5.12 | 0.873 | 7.62
15 | ROS-50 (B-cell leukaemia, suspension) | 0.855 | > 20 | 0.503 | 0.0654 | 0.894 | > 0.2 | 0.904 | > 50 | 0.533 | 5.04 | 0.976 | > 10.2 | 0.98 | > 16 | 0.979 | > 5 | 0.914 | > 5.12 | 0.908 | > 10.2
16 | WSU-NHL (lymphoid neoplasm, suspension) | 0.892 | 18.6 | 0.39 | 0.0331 | 0.463 | 0.01 | 0.349 | 1.26 | 0.801 | 26.9 | 0.972 | > 10.2 | 0.989 | > 16 | 0.984 | > 5 | 0.988 | > 5.12 | 0.864 | 7.24
17 | CP66-MEL (melanoma, adherent) | 0.964 | > 20 | 0.511 | 0.0687 | 0.754 | 0.076 | 0.852 | 47.4 | 0.952 | > 64 | 0.962 | > 10.2 | 0.973 | > 16 | 0.982 | > 5 | 0.979 | > 5.12 | 0.984 | > 10.2
18 | COLO-320-HSR (large intestine, suspension) | 0.929 | > 20 | 0.435 | 0.0435 | 0.806 | 0.0857 | 0.667 | 8.5 | 0.484 | 3.63 | 0.956 | > 10.2 | 0.979 | > 16 | 0.987 | > 5 | 0.978 | > 5.12 | 0.958 | > 10.2
19 | Raji (Burkitt lymphoma, suspension) | 0.885 | 19.4 | 0.509 | 0.0677 | 0.887 | 0.198 | 0.639 | 7.38 | 0.402 | 2.2 | 0.986 | > 10.2 | 0.989 | > 16 | 0.988 | > 5 | 0.99 | > 5.12 | 0.99 | > 10.2
20 | KYSE-70 (oesophagus, adherent) | 0.945 | > 20 | 0.428 | 0.04 | 0.739 | 0.0646 | 0.597 | 5.93 | 0.378 | 1.78 | 0.976 | > 10.2 | 0.958 | > 16 | 0.682 | 1.06 | 0.985 | > 5.12 | 0.968 | > 10.2
21 | NCI-H211 (small cell lung carcinoma, adherent) | 0.825 | 11.5 | 0.223 | 0.0102 | 0.973 | > 0.2 | 0.842 | 33.7 | 0.405 | 2.22 | 0.983 | > 10.2 | 0.973 | > 16 | 0.977 | > 5 | 0.981 | > 5.12 | 0.768 | 3.73
22 | PA-TU-8902 (pancreas, adherent) | 0.903 | > 20 | 0.49 | 0.0598 | 0.614 | 0.0272 | 0.763 | 20.9 | 0.562 | 6.1 | 0.954 | > 10.2 | 0.983 | > 16 | 0.981 | > 5 | 0.966 | > 5.12 | 0.855 | > 10.2
23 | MFH-ino (soft tissue, adherent) | 0.973 | > 20 | 0.413 | 0.0355 | 0.555 | 0.0182 | 0.37 | 1.28 | 0.054 | < 0.25 | 0.965 | > 10.2 | 0.983 | > 16 | 0.976 | > 5 | 0.981 | > 5.12 | 0.931 | > 10.2
